Here are results for 93 compounds from publication PMC4336329 (PLoS ONE, 2015).

Hit rate of the full screen: of about 310,000 compounds, about 2,200 (0.71%) showed an effect of 50% or more. The effect is printed as a negative number. The list shows a part of the results.

The test deals with human ether-à-go-go-related gene (hERG) potassium channel (human, UniProt Q12809). The experiment in a line: primary screen, population patch clamp on CHO cells stably expressing hERG.
human ether-à-go-go-related gene (hERG) potassium channel, sequence (Q12809 whole entry, looked up): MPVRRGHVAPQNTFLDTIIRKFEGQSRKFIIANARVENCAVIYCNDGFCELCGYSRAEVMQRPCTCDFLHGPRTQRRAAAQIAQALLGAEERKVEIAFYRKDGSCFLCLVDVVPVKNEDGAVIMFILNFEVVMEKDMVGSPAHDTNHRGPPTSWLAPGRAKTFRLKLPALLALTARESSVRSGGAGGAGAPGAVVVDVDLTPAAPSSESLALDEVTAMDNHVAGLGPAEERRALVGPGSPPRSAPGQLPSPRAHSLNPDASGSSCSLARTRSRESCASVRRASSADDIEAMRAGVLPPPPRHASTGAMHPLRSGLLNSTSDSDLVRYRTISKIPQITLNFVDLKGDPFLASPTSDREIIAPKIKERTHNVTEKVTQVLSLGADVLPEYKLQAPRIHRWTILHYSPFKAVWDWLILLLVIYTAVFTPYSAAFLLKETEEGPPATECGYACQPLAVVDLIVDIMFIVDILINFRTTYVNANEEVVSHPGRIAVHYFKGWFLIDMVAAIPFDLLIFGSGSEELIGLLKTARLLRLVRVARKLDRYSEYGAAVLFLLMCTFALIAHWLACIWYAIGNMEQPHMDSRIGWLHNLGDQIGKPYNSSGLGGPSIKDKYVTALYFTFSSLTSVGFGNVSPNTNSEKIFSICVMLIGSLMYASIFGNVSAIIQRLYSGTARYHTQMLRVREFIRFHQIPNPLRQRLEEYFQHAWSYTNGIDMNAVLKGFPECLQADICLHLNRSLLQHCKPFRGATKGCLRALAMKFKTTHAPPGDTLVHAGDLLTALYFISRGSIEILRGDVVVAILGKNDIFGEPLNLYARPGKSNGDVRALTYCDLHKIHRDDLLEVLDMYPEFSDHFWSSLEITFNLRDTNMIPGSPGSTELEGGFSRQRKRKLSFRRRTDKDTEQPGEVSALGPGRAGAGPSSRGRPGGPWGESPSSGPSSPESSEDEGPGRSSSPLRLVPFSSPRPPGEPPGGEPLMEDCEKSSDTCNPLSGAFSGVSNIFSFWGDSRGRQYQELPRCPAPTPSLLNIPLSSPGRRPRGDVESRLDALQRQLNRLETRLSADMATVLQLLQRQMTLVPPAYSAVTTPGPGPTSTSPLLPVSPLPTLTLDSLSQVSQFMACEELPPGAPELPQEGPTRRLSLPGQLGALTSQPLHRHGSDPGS
For the compound `N=C1SCC(=O)N1Cc1ccccc1`, the “hERG current change (%, negative = inhibition) at 1uM” value is given as 14.5%.
Take `O=C(CC1Oc2ccccc2NC1=O)NCCCN1CCOCC1` (stereo not drawn): the “hERG current change (%, negative = inhibition) at 1uM” value is -2.74%.
As for `O=C(Cc1ccc(-n2cnnn2)cc1)NC12CC3CC(CC(C3)C1)C2`, the “hERG current change (%, negative = inhibition) at 1uM” value is on record as -0.38%.
`O=C(c1cnn2c(C(F)F)cc(C3CC3)nc12)N1CCc2ccccc2C1`: the “hERG current change (%, negative = inhibition) at 1uM” value amounted to 1.43%.
Turning to `CC(=O)c1cccc(N(CC(=O)Nc2ccc(S(=O)(=O)N3CCOCC3)cc2)S(C)(=O)=O)c1`, the “hERG current change (%, negative = inhibition) at 1uM” value is 8.68%.
To `C=CCOc1cccc(C2C(C(=O)c3ccc(C)o3)=C(O)C(=O)N2c2nccs2)c1` (stereo not drawn) belongs 15.8%; to `CCCCN(C(=O)c1cnc(C)cn1)c1c(N)n(CCC)c(=O)[nH]c1=O`, 9.52%.
To `COc1ccc(CNC(=O)c2ccc(Cn3nc(C)cc3C)o2)cc1` belongs 26.5%.
Regarding `O=C(CSc1ccccc1)Nc1ccc(S(=O)(=O)NCC2CCCO2)cc1` (stereo not drawn), the “hERG current change (%, negative = inhibition) at 1uM” value was 14.2%.
With `Cc1ccc(NC(=O)c2sc(N)nc2-c2ccccc2)cc1C`, the “hERG current change (%, negative = inhibition) at 1uM” value turned out to be 7.85%.
To `COc1ccccc1CCNC(=O)c1csc2c1CCCC2` belongs 10.5%; to `COc1cccc(-n2c(C)n[nH]c2=O)c1`, 10.2%.
To `O=C(Nc1ccccc1C(=O)N1CCOCC1)c1noc2c1CCCC2` belongs -1.97%.
To `CCCc1nc2ccccc2c(=O)n1-c1ccc(C(=O)OCC)cc1` belongs 10.4%; to `COc1ccccc1CNC(=O)CCCNC(=O)Cn1cnc2sc(C)c(C)c2c1=O`, 18.2%; to `O=C(CCc1nnc(Cc2cccc(C(F)(F)F)c2)o1)NC1CC1`, 12.6%.
In the case of `Cc1ccsc1S(=O)(=O)N1CCC(CO)(CC2CCCCO2)CC1` (stereo not drawn), the “hERG current change (%, negative = inhibition) at 1uM” value worked out at 7.47%.
To `CCOC(=O)N1CCN(C(=O)C2CCCN(S(=O)(=O)c3ccc(C)cc3)C2)CC1` (stereo not drawn) belongs -6.54%.
As for `Cc1c(C)n(-c2ccc(Cl)cc2)c2ncnc(N)c12`, the “hERG current change (%, negative = inhibition) at 1uM” value is on record as 11.9%.
As for `N#Cc1c(-c2ccccc2)cc(-c2ccccc2)nc1SCC(=O)NCC(=O)O`, the “hERG current change (%, negative = inhibition) at 1uM” value is reported as -0.814%.
On to `CN1N=C(/C=C/c2ccccc2)CCC1=O`, for which the “hERG current change (%, negative = inhibition) at 1uM” value is 9.02%.
`COC(=O)COc1ccc(S(=O)(=O)Nc2ccc(NC(C)=O)cc2)cc1`: the “hERG current change (%, negative = inhibition) at 1uM” value worked out at 16.3%.
Then `CCC(CC)C(=O)N1CC(=O)Nc2ccc(F)cc2C1c1ccc(F)cc1` (stereo not drawn), with 5.45%; and `CCC(=O)c1ccccc1OCCN1C(=O)NC(C)(C)C1=O`, with 3.66%.
To `COc1ccc(Cc2nc3ccccc3[nH]c2=O)cc1` belongs 19.1%; to `O=C1C(=Cc2ccco2)C(=O)c2ccccc21`, 2.23%; to `Cc1ccsc1/C=N/n1c(-c2ccncc2)n[nH]c1=S`, 19.8%.
To `Cc1cc(C)n2c(SCC(=O)NC3CCCCC3C)nnc2n1` (stereo not drawn) belongs 1.06%; to `c1ccc(CSc2ccc3nnc(-c4ccccn4)n3n2)cc1`, -26.6%.
For `CC(=O)N1c2ccc(S(=O)(=O)NCC3CCC(C(=O)Nc4ccc(C)cn4)CC3)cc2CC1C` (stereo not drawn), the “hERG current change (%, negative = inhibition) at 1uM” value came out at 14.4%.
Then `C[C@@H](C(=O)N1CCNCC1)n1cc(CCCN=C(N)N)nn1.Cl`, with 14.3%.
In the case of `COCCNC(=S)N1CCN(S(C)(=O)=O)CC1`, the “hERG current change (%, negative = inhibition) at 1uM” value amounted to 19.1%.
Then `CC(C)c1ccc(OCC(=O)N2CCN(C)CC2)c(Br)c1`, with -12.1%.
As to `CCn1c(SCC(=O)Nc2cc(C)ccc2C)nc2c(c1=O)SC(C)C2` (stereo not drawn), the “hERG current change (%, negative = inhibition) at 1uM” value is listed as -14.2%.
Then `COc1ccc(C(CNC(=O)CN2C(=O)NC3(CC(C)CC(C)(C)C3)C2=O)N2CCOCC2)cc1` (stereo not drawn), with 14.3%; and `CCCOc1ccc(N2CC(C(=O)Nc3ccccn3)CC2=O)cc1` (stereo not drawn), with -1.16%.
Then `COC(=O)C(C(=O)NCC1CCCO1)C1CCCC1` (stereo not drawn), with 15%; and `CC(O)[C@H]1CNC(=O)C(=O)N1CC1CCCCC1` (stereo partly drawn), with 14.2%; and `CCN(c1ccccc1)S(=O)(=O)c1ccc(C(=O)Nc2cccc(C)n2)cc1`, with 9.71%.
To `O=C(CSc1nc2ccccc2c(=O)n1-c1ccccc1Cl)NC1CCS(=O)(=O)C1` (stereo not drawn) belongs 12.9%; to `CCC(=O)Nc1cnc(NC(=O)c2cccc(F)c2)cc1C`, -7.96%.
With `O=C1CCC([N+](=O)[O-])C(c2cccc3ccccc23)N1` (stereo not drawn), the “hERG current change (%, negative = inhibition) at 1uM” value is 3.47%.
In the case of `CC(C)N(c1ccccc1)c1ncnc(NCCC(=O)O)c1[N+](=O)[O-]`, the “hERG current change (%, negative = inhibition) at 1uM” value was determined as 7.27%.
As to `COc1cc(S(=O)(=O)Nc2ccc(C)cc2)ccc1N=Cc1c(C)[nH]n(-c2ccccc2)c1=O`, the “hERG current change (%, negative = inhibition) at 1uM” value is 16.6%.
Then `CCOC(=O)CNc1c(-c2ccc(OC)cc2)nc2ccc(Cl)cn12`, with -68.4%; and `O=C(Nc1ccc(Cl)cn1)C1CCN(S(=O)(=O)c2cccs2)CC1`, with -12.1%.
In the case of `CC(=O)c1sc(NC(=O)c2ccccc2F)nc1C`, the “hERG current change (%, negative = inhibition) at 1uM” value is given as 4.9%.
Take `Cc1ccc(-c2cccc(C(=O)NCc3ccccc3)n2)c2ccccc12`: the “hERG current change (%, negative = inhibition) at 1uM” value was found to be 12.7%.
To `CCc1ccccc1NC(=O)COc1ccc2oc(-c3ccc(OC)cc3)cc(=O)c2c1` belongs 9.33%; to `O=C(OCCCCN1C(=O)c2ccccc2C1=O)c1ccc(Br)o1`, 12.8%; to `C/C(=C\C(=O)c1ccccc1)NNC(=O)c1ccc(Cl)cc1`, 7.46%.
In the case of `CC(C)(C)N(Cc1ccccc1)C(=O)c1ccc(Cl)cc1[N+](=O)[O-]`, the “hERG current change (%, negative = inhibition) at 1uM” value is 18.3%.
With `CCOC(=O)c1sc(NC(=O)c2ccc(CC)s2)nc1C`, the “hERG current change (%, negative = inhibition) at 1uM” value is 1.85%.
To `CN1CCN(S(=O)(=O)c2ccc(CNC(=O)c3ccccc3)s2)CC1` belongs 12.8%.
On to `Cc1sc2ncnc(N3CCN(Cc4ccccc4)CC3)c2c1-c1ccccc1`, for which the “hERG current change (%, negative = inhibition) at 1uM” value was 11.7%.
To `CCC1(c2ccc(F)cc2)NC(=O)N(CC(=O)Nc2ccc(S(N)(=O)=O)cc2)C1=O` (stereo not drawn) belongs 8.71%.
Then `O=c1c2ccccc2nc(/C=C/c2ccc3c(c2)OCO3)n1-c1cccc(O)c1`, with 3.69%; and `N#Cc1cc([N+](=O)[O-])ccc1NCCN1CCOCC1`, with -8.64%.
Take `Oc1ccc(Cc2ccc(Cl)cc2)c(O)c1`: the “hERG current change (%, negative = inhibition) at 1uM” value is recorded as 10.6%.
To `CCN1C(=O)c2c(C)nc3ccccc3c2C1=O` belongs 2.48%; to `Cc1nn(C(C)C(=O)NCCCN2CCCC2)c(=O)c2nn(-c3ccccc3)c(C)c12` (stereo not drawn), 10.8%.
Then `Cl.NOCC(=O)O`, with 13%; and `O=C(O)c1ccccc1Nc1ccnc(Cl)n1`, with 12.5%.
Turning to `CCOc1ccc(-n2c(=O)c3c(C)c(C)sc3n(CC(=O)NCc3ccco3)c2=O)cc1`, the “hERG current change (%, negative = inhibition) at 1uM” value turned out to be 6.41%.
As to `CCOc1nc(SCCOc2ccc(Cl)cc2Cl)nc(N(C)C)n1`, the “hERG current change (%, negative = inhibition) at 1uM” value worked out at 13.2%.
Then `C[N+](C)(C)Cc1ccccc1.[Cl-]`, with 14.2%; and `COC(=O)c1ccccc1NC(=O)Cc1ccccc1OC`, with 0.402%.
For the compound `O=C(CC1C(=O)NCCN1Cc1ccc(-c2ccccc2)cc1)NCC1CC1` (stereo not drawn), the “hERG current change (%, negative = inhibition) at 1uM” value is -4.81%.
On to `Oc1c(Br)cc(Br)cc1C=NCc1ccccc1`, for which the “hERG current change (%, negative = inhibition) at 1uM” value is recorded as 9.16%.
For `CCCCN1CCc2c([nH]c3ccc(C)cc23)C1=O`, the “hERG current change (%, negative = inhibition) at 1uM” value stood at 9.53%.
Consider `CC(C)CN1CCN(Cc2cccn2-c2ccccn2)CC1CCO` (stereo not drawn), for which the “hERG current change (%, negative = inhibition) at 1uM” value is recorded as -18.8%.
On to `CCC(C)c1ccc(NC(=O)C2CC3CCC2C3)cc1` (stereo not drawn), for which the “hERG current change (%, negative = inhibition) at 1uM” value worked out at 14%.
Then `Cc1c(C(=O)NCC2CCCO2)oc2ccc(S(=O)(=O)N3CCCC3)cc12` (stereo not drawn), with 11%; and `Nc1cc(C(=O)O)ccc1Sc1ccccc1C(=O)O`, with 12.9%; and `COC(=O)c1sccc1NC(=O)CC1C(=O)NCCN1C(=O)Nc1ccc(F)cc1F` (stereo not drawn), with 6.74%.
Then `COc1ccccc1Cn1c(=S)[nH]c2cc(C(=O)NC(C)C)ccc2c1=O`, with 8.91%; and `O=c1[nH]c(=O)n(C2CCCCCC2)c(O)c1C=NCCCN1CCOCC1`, with 12.8%.
Then `O=C(c1cc2ccccc2oc1=O)N1CCN(C(=O)C2CCCO2)CC1` (stereo not drawn), with 4.25%; and `CCOC(=O)C1(Cc2ccccc2C)CCCN(Cc2cn(C)nc2C)C1` (stereo not drawn), with 9.7%.
As for `CCC1(CC)C(=N)N(C)C(=O)NC1=O`, the “hERG current change (%, negative = inhibition) at 1uM” value was 17.9%.
To `O=C(COc1ccc2ccccc2c1)NC1=NCCS1` belongs 11.8%; to `CCn1c(CNc2ccc(C(=O)O)cc2)nc2ccccc21`, 3.87%.
To `CCn1nnc(NC(=O)c2cccnc2)n1` belongs 11.5%.
To `CC1=NC(=O)C(N=Nc2cccc(C(=O)O)c2)N1c1ccccc1` (stereo not drawn) belongs 15.8%; to `COC(=O)C1(Cc2ccc(O)c(CC3OC3(C)C)c2)OC(=O)C(O)=C1c1ccc(O)cc1` (stereo not drawn), 12%.
As for `COc1ccccc1NC(=O)N1CCc2[nH]c3ccc(F)cc3c2C1`, the “hERG current change (%, negative = inhibition) at 1uM” value came to 5.99%.
For the compound `Cc1ccc(S(=O)(=O)c2nc(Nc3nccs3)sc2Cl)cc1`, the “hERG current change (%, negative = inhibition) at 1uM” value turned out to be 15.3%.
Turning to `S=c1nc2ccccc2c2nc(-c3ccccc3)[nH]n12`, the “hERG current change (%, negative = inhibition) at 1uM” value is 17.9%.
To `O=C(Nc1cccc(F)c1)OC(CN1CCCCC1)C(F)(F)F` (stereo not drawn) belongs 5.13%; to `Fc1ccccc1NC(=S)NCc1ccc2c(c1)OCO2`, 6.42%.
To `CC12CC(NC(=O)N1c1cccc(C(=O)N3CCN(c4ccccn4)CC3)c1)c1ccccc1O2` (stereo not drawn) belongs 6.79%; to `Cc1ccc(CN2C(=O)CCC2C(=O)NCc2ccccc2Cl)cc1` (stereo not drawn), 7.62%.
To `Cc1ccc(-c2nnc(SCC(=O)NC3CC3)n2N)cc1` belongs 3.61%.
